Measured values reported in ChEMBL document CHEMBL4888484, “Replenishing the malaria drug discovery pipeline: Screening and hit evaluation of the MMV Hit Generation Library 1 (HGL1) against asexual blood stage Plasmodium falciparum ,using a nano luciferase reporter read-out” (2022).
About 540 (0.36%) of roughly 150,000 compounds showed an effect of 50% or more. This is one part of the list.

System: Plasmodium falciparum
Experiment: Primary screen in NF54 nanoGlo assay, in single point, at 2uM, 72h; a lower Z score goes with more inhibition
Type: functional, Erythrocyte
Conditions: timepoint 72 hour

SMILES	% Inhibition [%]	Z score
Cc1cc(C(=O)Cn2cnn(C(C)(C)C)c2=O)c(C)[nH]1	14	-1.88
O=C(NC1CC1)c1coc(CN(CCc2c[nH]c3ccccc23)Cc2cccc(Cl)c2)n1	-1	0.22
Cc1ccc(OCCC(=O)NCc2ccc[n+]([O-])c2)cc1C	-5	1.01
CC1(C)CCc2cccc(NC(=O)[C@@]3(C)CCNC(=O)C3)c2O1	-5	0.66
CC1CCC(CN(C)CCC2OCCO2)CC1 (stereo not given)	-15	2.18
CC(=O)N(CCC(=O)N(C)Cc1csc(C)n1)Cc1ccccc1	-4	0.57
O=C(O)C1(Oc2cccc(F)c2)CCN(c2cc(NCCO)ncn2)CC1	2	-0.29
CO[C@@]1(C(=O)O)CCN(Cc2csc3ccccc23)C1	3	-0.52
CCC1CCC(C(=O)NCc2cnc(C)nc2N)O1 (stereo not given)	-12	1.36
Cc1noc(C)c1CNc1nnc2ccccn12	-3	0.54
COC(CS(=O)(=O)N1CCCC(c2nnc[nH]2)C1)C(C)C (stereo not given)	-7	0.71
Cc1ccnc(-n2cnc3ccccc32)n1	12	-1.54
O=C(NCc1cccnc1-n1cnc2ccccc21)c1n[nH]c2c1CCC2	-5	0.56
Cc1nccn1-c1ncc(NC(=O)Cc2c[nH]c3ccccc23)cn1	-2	0.32
COCCN1CC[C@@]2(CCC1=O)CN(Cc1ccc(C)o1)CCN2C	-4	0.87
CCN1CCN(C(=O)CCc2c(C)n(C)c3cc(-c4ccccc4C)nn3c2=O)CC1	2	-0.23
O=C(Cc1ccoc1)N1CCO[C@@H](CF)C1	-2	0.3
C[C@@H](CO)N(CC1CCC1)C(=O)Nc1ccc(Br)cc1F	-3	0.32
O=C(Cc1ccon1)N1CCO[C@H](c2ccccc2)CC1	-10	2.06
CC1(C(=O)N2CCC(N3CCC(C(=O)N4CCCC4)CC3)CC2)CCCCC1	-11	1.26
CCc1cc(C(=O)NCC#C[C@@H]2CCCCO2)no1	-28	2.96
O=C([C@@H]1COCC(=O)N1Cc1ccccc1)N1CCCCC1	-4	0.6
C[C@H](NC(=O)NCc1ccnc2ccccc12)C1CCC1	-8	1.11
CCn1ncnc1CNC(=O)c1cc(C)cc(OC)c1O	-12	2.34
O=C(c1cccc(OC(F)F)c1)N(C[C@H]1CCCO1)c1ccncc1	-10	1.56
COCCN1C(=O)C[C@](CC(=O)N2CCN(CC(=O)N(C)C)CC2)(c2ccccc2F)C1=O	-10	1.3
CC[C@@](NC(=O)c1cscn1)(C(N)=O)C(C)C	-3	0.31
Cc1nnsc1[C@H](C)ON=C(N)C(C)C	-8	1.05

SMILES	% Inhibition [%]	Z score
O=C(NCc1ccc(Cl)cc1)c1ccc(-n2nc(OCc3cccc(F)c3)ccc2=O)cc1	-7	1.32
COc1ccc(CCC(=O)N2CC(N(CC(C)C)C3CCN(C)CC3)C2)cc1	1	-0.13
CCc1ccc(CNC(=O)c2nnc3ccc(-c4ccccc4)nn23)cc1	-4	0.83
Cc1nc(N2CCOCC2)c2c(C(=O)Nc3ccc(F)cc3F)c(C)oc2n1	-11	1.86
O=C(Nc1ccc(F)cc1)OC1CCCC(NS(=O)(=O)c2ccc(Cl)s2)C1 (stereo not given)	-22	4.16
CCNC(=O)C(=O)NCc1nc(CC)no1	-6	0.9
N#Cc1c[nH]c(C(=O)Nc2ccc(F)cc2NC2CC2)c1	-1	0.09
Cc1n[nH]c(C)c1CCNC(=O)c1cc(S(C)(=O)=O)cs1	-3	0.38
COCC[C@]1(NS(=O)(=O)c2ccccc2)CCN(S(=O)(=O)c2cccnc2)C1	2	-0.28
CCc1c(C(=O)Nc2ccc3nc(C)cn3c2)cnc2cc(O)nn12	-9	1.6
CC(=O)N1C[C@H]2CC[C@@H](C1)N(C(=O)c1[nH]c3ccc(C)cc3c1C)C2	-8	1.31
COc1ccc(C(=O)N2CCc3cc4cccc(C)c4nc32)cc1	-4	0.47
CC1CCN(C(=O)NCc2ccc3c(c2)CCC3)C1CO (stereo not given)	-14	1.89
CN(Cc1ccoc1)C(=O)c1cccc(-c2nc(N(C)C)n(C)n2)c1	-3	0.55
COC(=O)c1nc([C@@H]2CCCN2c2nccn3cnnc23)sc1C	-6	0.93
CN(C(=O)c1coc(-c2ccccc2)n1)c1ccc(N2CCOCC2)nc1	-14	1.76
CC(C)(C)CN(C[C@H](O)c1ccccc1)C(=O)Cc1ccc(OCC#N)cc1	-3	0.48
Cc1nn(-c2ccc(C(=O)N3CCN(c4ccccc4F)CC3)cc2)c2c1C(=O)CCC2	-9	0.86
CCOc1nc2cc(C(=O)N3C[C@H](OC)C[C@H]3COC)ccc2[nH]1	-6	0.8
CCc1nn(C)cc1CN1CCC(O)(C(F)(F)F)CC1	-12	1.65
O=C(CN1C(=O)COc2ccc(C(=O)N3CCN(Cc4ccc5c(c4)OCO5)CC3)cc21)N1CCCC1	-7	0.89
C[C@](O)(CNC(=O)Cc1ccc2cn[nH]c2c1)c1ccco1	-7	1.01
Cc1nc(CO[C@H]2CCN(c3ccc(S(C)(=O)=O)cc3)C2)cs1	-22	1.82
CN1CCN(C2(CNC(=O)c3cc(O)ccc3F)CCCC2)CC1	-5	0.97
Cc1ccc(CNC(=O)Cc2nnc(-c3ccccn3)o2)cc1C	2	-0.16
Cc1cc(NC(=O)NCC2(O)CCCCCC2)nn1C1CCCCC1	0	-0.06
CCN(CC)c1ncnc2sc(C(=O)Nc3cccc(OC)c3)c(C)c12	3	-0.47
